Like-named read-outs stand apart in the source and are kept apart here. These are yes or no findings as the source states them, for the method shown. In cells and extracts the contact can be indirect. Some binding calls cover weakened binding; strength is not graded here. For some of these results: Where a sequence is shown, tags or fusion partners need not be part of it. Blank lines part the entries; values can stand above or below the molecule they belong to.
Tests used:
[1] = target: T1, MYC-STRA8 (1-393aa), Stimulated By Retinoic Acid Gene 8 (mouse) (UniProt P70278); test: co-IP; HEK-293T cells co-transfected with pCMV-MYC and pCMV-HA constructs; lysate, 1~2 μg antibody 4 h at 4°C, protein G overnight (Roche immunoprecipitation kit), Western blot
T1 sequence: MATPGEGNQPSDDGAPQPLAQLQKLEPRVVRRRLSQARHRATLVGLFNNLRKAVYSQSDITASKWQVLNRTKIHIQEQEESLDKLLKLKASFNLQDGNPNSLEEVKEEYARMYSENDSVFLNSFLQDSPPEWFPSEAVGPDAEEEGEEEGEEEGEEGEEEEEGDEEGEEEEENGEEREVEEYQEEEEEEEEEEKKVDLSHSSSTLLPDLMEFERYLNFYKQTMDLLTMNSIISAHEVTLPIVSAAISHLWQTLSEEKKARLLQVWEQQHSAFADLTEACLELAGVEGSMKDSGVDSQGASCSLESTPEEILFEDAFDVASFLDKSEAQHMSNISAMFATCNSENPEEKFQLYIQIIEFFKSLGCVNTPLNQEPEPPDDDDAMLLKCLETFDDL

The chains behind the UniProt entries cited, without tags or fusion partners.
UniProt P17918: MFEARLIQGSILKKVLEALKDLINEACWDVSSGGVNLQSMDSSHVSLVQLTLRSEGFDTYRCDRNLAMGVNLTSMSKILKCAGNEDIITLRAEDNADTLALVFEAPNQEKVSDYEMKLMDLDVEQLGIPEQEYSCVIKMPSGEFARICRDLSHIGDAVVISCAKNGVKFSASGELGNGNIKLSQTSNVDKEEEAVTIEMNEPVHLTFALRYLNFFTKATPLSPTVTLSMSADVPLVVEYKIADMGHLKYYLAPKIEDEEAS

[2] = target: T1, MYC-STRA8 (1-393aa), Stimulated By Retinoic Acid Gene 8 (mouse); test: as above; remark: listed apart in the source
[3] = target: T2, MYC-STRA8 F1R2 (1aa-193aa) (mouse) (UniProt P70278); test: as above
T2 sequence: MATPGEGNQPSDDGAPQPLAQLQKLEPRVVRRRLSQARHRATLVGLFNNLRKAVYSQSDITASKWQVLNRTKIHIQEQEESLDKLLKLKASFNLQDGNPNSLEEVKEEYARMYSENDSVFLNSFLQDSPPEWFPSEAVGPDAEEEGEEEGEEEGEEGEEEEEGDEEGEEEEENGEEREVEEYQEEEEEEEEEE

[4] = target: T3, MYC-STRA8 F1R1 (1aa-142aa) (mouse) (UniProt P70278); test: as above
T3 sequence: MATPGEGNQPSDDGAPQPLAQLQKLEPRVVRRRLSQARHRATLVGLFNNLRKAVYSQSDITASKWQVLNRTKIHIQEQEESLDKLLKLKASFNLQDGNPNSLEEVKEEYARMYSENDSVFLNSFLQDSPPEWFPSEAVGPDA

[5] = target: T4, endogenous STRA8 of F9 cells (mouse (endogenous in F9)) (UniProt P70278); test: co-IP; F9 cells which express endogenous STRA8; lysate, antibody and protein G (Roche immunoprecipitation kit), Western blot
T4 sequence: T1 sequence

- binding [1]: binds
Molecule: HA-PCNA (from UniProt P17918 1-261)

- binding [2]: no binding
B1: HA-SETD8 F3R2 (100aa-213aa) (domain or fragment, UniProt Q2YDW7 100-213)
chain: GNVIRSAVKSDEQKSKDTRRGPLAPFPNQKSEAAEPPKTPPPSCDSTNVAVAKQALKKSLKGKQAPRKKSQGKTQQNRKLTDFYPVRRSSRKSKAELQSEERKKNELIESGKEE

- binding [2]: binds
- binding [3]: binds
- binding [4]: no binding
B2: HA-SETD8 F1R2 (1aa-213aa) (domain or fragment, UniProt Q2YDW7 1-213)
chain: MARGRKMCKPRAVEAAAAAVAATAPGPEMVEQRGPGRPRSDGENVFAGQSKIYAYMSPNKCSAMRSPLQEENSVAHHEVKCPGKPLAGIYRKREEKRNTGNVIRSAVKSDEQKSKDTRRGPLAPFPNQKSEAAEPPKTPPPSCDSTNVAVAKQALKKSLKGKQAPRKKSQGKTQQNRKLTDFYPVRRSSRKSKAELQSEERKKNELIESGKEE

- binding [2]: binds
- binding [3]: binds
- binding [4]: binds
B3: HA-SETD8 F1R1 (1aa-350aa), lysine methyltransferase 5A (protein, UniProt Q2YDW7 1-349)
chain: MARGRKMCKPRAVEAAAAAVAATAPGPEMVEQRGPGRPRSDGENVFAGQSKIYAYMSPNKCSAMRSPLQEENSVAHHEVKCPGKPLAGIYRKREEKRNTGNVIRSAVKSDEQKSKDTRRGPLAPFPNQKSEAAEPPKTPPPSCDSTNVAVAKQALKKSLKGKQAPRKKSQGKTQQNRKLTDFYPVRRSSRKSKAELQSEERKKNELIESGKEEGMKIDLIDGKGRGVIATKQFSRGDFVVEYHGDLIEITDAKKREALYVQDPSTGCYMYYFQYLSKTYCVDATQETNRLGRLINHSKCGNCQTKLHDIDGVPHLILIASRDIAAGEELLYDYGDRSKASIEAYPWLKH

- binding [5]: binds
B4: SETD8 in F9 cells (protein, UniProt Q2YDW7 1-349)
chain: B3 chain

- binding [2]: no binding
B5: HA-SETD8 F2R3 (214aa-341aa) (domain or fragment, UniProt Q2YDW7 214-341)
chain: GMKIDLIDGKGRGVIATKQFSRGDFVVEYHGDLIEITDAKKREALYVQDPSTGCYMYYFQYLSKTYCVDATQETNRLGRLINHSKCGNCQTKLHDIDGVPHLILIASRDIAAGEELLYDYGDRSKASI

- binding [2]: binds
- binding [3]: binds
- binding [4]: no binding
B6: HA-SETD8 F2R1 (214aa-350aa) (domain or fragment, UniProt Q2YDW7 214-349)
chain: GMKIDLIDGKGRGVIATKQFSRGDFVVEYHGDLIEITDAKKREALYVQDPSTGCYMYYFQYLSKTYCVDATQETNRLGRLINHSKCGNCQTKLHDIDGVPHLILIASRDIAAGEELLYDYGDRSKASIEAYPWLKH

Reference: publication PMC7171306
